From the supplement of paper PMC7826260
This is one part of the list. The data describe in vitro nicking of single-stranded DNA by Rep domains (3 µM enzyme, 1 h, 37 °C); shown is the middle of each 90-letter strand. Values are log2 of uncut reads against the no-enzyme pool; uncut sequences lie near 0, cut ones below; no hit call is given. The scaling is to total reads; uncut strands gain when others are lost, and binding without cutting may add a little.

Legend:
Assay in all cases: uncleaved DNA left, log2 of reads against the no-enzyme library (log2 ratio); higher = less cleavage (more negative = more Rep cleavage of the k-mer); sequences stand for … in CTCGTCCG…ACCGGAGA
[1] = system: T1, Rep nickase domain of Muscovy duck circovirus
T1 sequence (Rep 1-111, printed without the tag): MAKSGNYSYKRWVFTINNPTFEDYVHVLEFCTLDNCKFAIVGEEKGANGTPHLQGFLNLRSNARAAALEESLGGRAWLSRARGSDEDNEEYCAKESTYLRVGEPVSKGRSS
Procedure: (§1)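 A pool of 90-nt single-stranded DNAs with seven random bases just before the constant AC of the nick site (name = the seven bases) was cut by 3 µM recombinant His6-SUMO-tagged Rep nickase domain (300 nM DNA, 50 mM HEPES pH 8.0, 50 mM NaCl, 1 mM MnCl2, 1 h, 37 °C, three replicates). Uncut DNA was amplified and sequenced.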

[2] = system: T2, Rep nickase domain of banana bunchy top virus
T2 sequence (Rep 1-94, printed without the tag): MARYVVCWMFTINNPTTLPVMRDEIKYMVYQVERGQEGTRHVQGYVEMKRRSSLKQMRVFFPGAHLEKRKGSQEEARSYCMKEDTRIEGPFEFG
Procedure: as §1

[3] = system: T3, Rep nickase domain of cabbage leaf curl virus
T3 sequence (Rep 1-116, printed without the tag): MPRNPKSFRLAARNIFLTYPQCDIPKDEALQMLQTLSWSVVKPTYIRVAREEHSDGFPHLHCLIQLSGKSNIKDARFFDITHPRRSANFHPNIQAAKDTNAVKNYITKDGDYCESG
Procedure: as §1

[4] = system: T4, Rep nickase domain of chickpea chlorotic dwarf virus
T4 sequence (Rep 1-124, printed without the tag): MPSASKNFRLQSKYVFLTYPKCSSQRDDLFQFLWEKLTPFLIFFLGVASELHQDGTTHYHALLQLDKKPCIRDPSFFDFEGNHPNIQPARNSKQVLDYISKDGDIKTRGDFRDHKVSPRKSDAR
Procedure: as §1

[5] = system: T5, Rep nickase domain of faba bean necrotic yellows virus
T5 sequence (Rep 1-98, printed without the tag): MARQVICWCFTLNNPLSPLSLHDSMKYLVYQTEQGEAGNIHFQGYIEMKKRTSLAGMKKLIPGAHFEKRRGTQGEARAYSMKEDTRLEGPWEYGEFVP
Procedure: as §1

[6] = system: T6, Rep nickase domain of maize striate mosaic virus
T6 sequence (Rep 1-117, printed without the tag): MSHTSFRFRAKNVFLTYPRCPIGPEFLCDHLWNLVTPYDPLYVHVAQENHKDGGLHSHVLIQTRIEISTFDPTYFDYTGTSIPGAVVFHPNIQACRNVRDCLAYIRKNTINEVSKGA
Procedure: as §1

[7] = system: T7, Rep nickase domain of porcine circovirus 2
T7 sequence (Rep 2-116, printed without the tag): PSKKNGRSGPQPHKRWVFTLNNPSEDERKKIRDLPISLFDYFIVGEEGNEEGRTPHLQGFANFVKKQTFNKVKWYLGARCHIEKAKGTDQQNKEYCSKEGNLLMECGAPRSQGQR
Procedure: as §1

[8] = system: T8, Rep nickase domain of tomato golden mosaic virus
T8 sequence (Rep 1-124, printed without the tag): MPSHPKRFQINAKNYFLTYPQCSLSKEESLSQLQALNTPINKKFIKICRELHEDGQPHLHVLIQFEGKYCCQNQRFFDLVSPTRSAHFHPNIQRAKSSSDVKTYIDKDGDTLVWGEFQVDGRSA
Procedure: as §1

[9] = system: T9, Rep nickase domain of tomato yellow leaf curl virus
T9 sequence (Rep 1-136, printed without the tag): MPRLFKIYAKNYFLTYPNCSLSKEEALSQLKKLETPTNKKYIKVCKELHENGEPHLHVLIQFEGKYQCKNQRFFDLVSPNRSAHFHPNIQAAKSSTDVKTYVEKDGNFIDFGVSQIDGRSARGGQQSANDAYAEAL
Procedure: as §1

[10] = system: T10, Rep nickase domain of wheat dwarf virus
T10 sequence (Rep 1-137, printed without the tag): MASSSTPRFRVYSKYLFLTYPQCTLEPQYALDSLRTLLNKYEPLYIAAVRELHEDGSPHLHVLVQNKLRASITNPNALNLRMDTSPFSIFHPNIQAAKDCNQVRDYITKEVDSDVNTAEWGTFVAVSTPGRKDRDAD
Procedure: as §1

| Sequence | uncleaved DNA left (log2) [1] | uncleaved DNA left (log2) [2] | uncleaved DNA left (log2) [3] | uncleaved DNA left (log2) [4] | uncleaved DNA left (log2) [5] | uncleaved DNA left (log2) [6] | uncleaved DNA left (log2) [7] | uncleaved DNA left (log2) [8] | uncleaved DNA left (log2) [9] | uncleaved DNA left (log2) [10] |
| --- | --- | --- | --- | --- | --- | --- | --- | --- | --- | --- |
| CGTATGG | 0.049 | -0.00364 | -0.0235 | 0.243 | -0.0246 | -0.437 | 0.113 | -0.0727 | 0.0345 | -0.0405 |
| TCTCGTT | 0.226 | -0.01 | 0.0384 | -1.29 | 0.205 | -0.584 | -0.41 | 0.0705 | 0.135 | -0.0673 |
| TTAGACT | 0.0291 | -0.0808 | 0.0975 | -0.597 | -0.0132 | 1.13 | 0.0573 | -0.0209 | -0.0236 | -0.0359 |
| GTATCAT | -0.0627 | 0.159 | 0.399 | 1 | 0.0334 | 1.88 | 0.071 | -0.00141 | 0.0821 | 0.228 |
| TCCAACA | -0.011 | -0.00205 | -0.0759 | -2.12 | -0.0722 | -0.35 | -0.156 | -0.015 | -0.102 | -0.000262 |
| CTTCGGA | 0.263 | 0.104 | 0.249 | 0.457 | 0.194 | -0.14 | 0.212 | 0.16 | 0.0341 | 0.0527 |
| TACTCGC | 0.00297 | -0.0871 | -0.639 | -0.995 | -0.0302 | -1.09 | -0.439 | -0.166 | 0.0556 | -0.025 |
| CCTTGTC | -0.0097 | -0.123 | -0.144 | -0.559 | -0.139 | -0.97 | 0.00448 | -0.0702 | -0.106 | -0.129 |
| GATGCAA | 0.0771 | 0.0597 | 0.145 | 0.625 | 0.0389 | 0.602 | 0.0272 | 0.063 | 0.0164 | 0.105 |
| GAGCGTG | 0.06 | 0.163 | -0.0344 | 0.634 | 0.195 | 1.34 | 0.211 | 0.0958 | 0.119 | 0.133 |
| AAGGGAT | -0.0911 | -0.123 | 0.178 | 1.52 | -0.142 | 1.73 | 0.036 | 0.096 | -0.269 | -0.0941 |
| TTCTCCT | -0.41 | -0.204 | -0.0413 | -1.11 | 0.0548 | 0.715 | -0.893 | -0.29 | -0.0247 | -0.21 |
| GCTTTCT | -0.653 | -0.0976 | -0.00418 | -0.946 | -0.153 | -0.0192 | -1.12 | -0.0602 | 0.0277 | -0.0466 |
| GATGGAT | -0.0175 | 0.0301 | 0.171 | 1.47 | -0.0886 | 1.84 | 0.0616 | 0.126 | -0.147 | -0.0524 |
| AACGCTG | 0.00474 | 0.0389 | 0.264 | 1.71 | -0.0145 | 1.81 | 0.191 | 0.145 | -0.0768 | -0.0555 |
| ACTCGCG | 0.0101 | 0.151 | 0.27 | 1.75 | 0.016 | 1.62 | 0.122 | 0.0744 | 0.077 | 0.0363 |

| Sequence | uncleaved DNA left (log2) [1] | uncleaved DNA left (log2) [2] | uncleaved DNA left (log2) [3] | uncleaved DNA left (log2) [4] | uncleaved DNA left (log2) [5] | uncleaved DNA left (log2) [6] | uncleaved DNA left (log2) [7] | uncleaved DNA left (log2) [8] | uncleaved DNA left (log2) [9] | uncleaved DNA left (log2) [10] |
| --- | --- | --- | --- | --- | --- | --- | --- | --- | --- | --- |
| CGGGGTA | 0.063 | 0.0295 | 0.559 | 0.957 | 0.0179 | 1.6 | 0.107 | 0.106 | 0.0225 | 0.168 |
| ACTGTCG | 0.0441 | 0.0752 | -0.64 | 0.527 | 0.0435 | -0.393 | 0.228 | 0.0284 | 0.0672 | -0.0205 |
| TATTGAA | -2.59 | -0.496 | -0.353 | -1.13 | -0.0606 | -1.02 | -2.43 | -0.0233 | 0.0819 | -0.0735 |
| TTGTACA | 0.0123 | -0.0111 | 0.142 | -1.09 | -0.0404 | 0.473 | -0.192 | -0.0571 | -0.0127 | 0.0459 |
| ATAGGTT | -0.0719 | -0.0475 | 0.109 | 1.25 | -0.14 | 1.7 | -0.0212 | 0.139 | -0.111 | 0.00628 |
| CGGGAGT | -0.0177 | -0.202 | 0.374 | 1.33 | -0.13 | 1.59 | 0.112 | -0.232 | -0.201 | 0.0124 |
| GGCTTCA | -0.0815 | -0.0463 | 0.28 | 0.72 | -0.111 | 1.47 | -0.117 | -0.0841 | -0.0767 | -0.00375 |
| AAATTGT | -1.31 | 0.0282 | -3.95 | -3.27 | 0.099 | -2.98 | -3.91 | -2.72 | 0.121 | -3.02 |
| GCAGAAA | 0.0464 | 0.133 | 0.244 | 0.53 | 0.0415 | 0.0964 | 0.229 | 0.158 | 0.0237 | 0.0667 |
| GGGGTTT | 0.0476 | 0.0928 | 0.738 | 1.65 | -0.0121 | 2.12 | 0.107 | 0.0349 | 0.0177 | 0.066 |
| GGAAGAA | -0.0293 | 0.0427 | 0.696 | 1.52 | -0.0344 | 1.77 | 0.25 | -0.0692 | 0.0669 | 0.138 |
| ATCAGTT | 0.0087 | -0.091 | -0.213 | -2.23 | -0.026 | -0.62 | -0.223 | -0.0622 | -0.106 | -0.0948 |
| CGTGCAG | -0.0545 | -0.121 | -0.794 | -0.46 | -0.00538 | -0.859 | 0.0707 | -0.0495 | -0.00631 | -0.246 |
| ACGTTGG | 0.125 | -0.0234 | -0.54 | -0.608 | 0.15 | -1.01 | 0.235 | 0.0886 | 0.0684 | -0.103 |
| GTTGCGC | 0.0448 | -0.108 | -0.753 | 0.317 | 0.0244 | -0.536 | 0.133 | 0.0101 | 0.0146 | -0.156 |
